Results: PubChem BioAssay AID504332 (National Center for Advancing Translational Sciences (NCATS), 2011)
The campaign covered roughly 350,000 compounds. About 31,000 (8.9%) were called active. This list was built around the results that the source calls inconclusive (neither active nor inactive); the mix of calls is not that of the screen. The call rests on the fitted dose curve; in most records, active means well fitted inhibition curve with a large enough effect; inconclusive means small, poorly fitted or top-dose-only effect; inactive means no such curve, though single readings can be large or run the other way. Potencies of inconclusive entries are doubtful fits and often do not repeat.

target: Histone-lysine N-methyltransferase EHMT2 (Homo sapiens) (UniProt Q96KQ7); test: qHTS Assay for Inhibitors of Histone Lysine Methyltransferase G9a; details: G9a H3K9 monomethylation, AlphaScreen, 2 h; activity, negative = inhibition: at 59 µM (top of the series) unless noted; further: nearly all actives have a fitted effect of over 75% in size
How it was run: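 AlphaScreen read-out: biotin-H3K9 peptide (500 nM) methylation by 20 nM enzyme with 20 uM SAM, 2 h at room temperature after 15 min compound preincubation; anti-monomethyl H3K9 antibody plus donor/acceptor beads, 10 min dark.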
On the % scale 0 is the no-effect control and ±100 the full control effect; potency means the concentration at half of the fitted maximal effect; tags describe the fitted curve by direction and shape.

Sequence of UniProt Q96KQ7 (Q96KQ7 whole entry, looked up): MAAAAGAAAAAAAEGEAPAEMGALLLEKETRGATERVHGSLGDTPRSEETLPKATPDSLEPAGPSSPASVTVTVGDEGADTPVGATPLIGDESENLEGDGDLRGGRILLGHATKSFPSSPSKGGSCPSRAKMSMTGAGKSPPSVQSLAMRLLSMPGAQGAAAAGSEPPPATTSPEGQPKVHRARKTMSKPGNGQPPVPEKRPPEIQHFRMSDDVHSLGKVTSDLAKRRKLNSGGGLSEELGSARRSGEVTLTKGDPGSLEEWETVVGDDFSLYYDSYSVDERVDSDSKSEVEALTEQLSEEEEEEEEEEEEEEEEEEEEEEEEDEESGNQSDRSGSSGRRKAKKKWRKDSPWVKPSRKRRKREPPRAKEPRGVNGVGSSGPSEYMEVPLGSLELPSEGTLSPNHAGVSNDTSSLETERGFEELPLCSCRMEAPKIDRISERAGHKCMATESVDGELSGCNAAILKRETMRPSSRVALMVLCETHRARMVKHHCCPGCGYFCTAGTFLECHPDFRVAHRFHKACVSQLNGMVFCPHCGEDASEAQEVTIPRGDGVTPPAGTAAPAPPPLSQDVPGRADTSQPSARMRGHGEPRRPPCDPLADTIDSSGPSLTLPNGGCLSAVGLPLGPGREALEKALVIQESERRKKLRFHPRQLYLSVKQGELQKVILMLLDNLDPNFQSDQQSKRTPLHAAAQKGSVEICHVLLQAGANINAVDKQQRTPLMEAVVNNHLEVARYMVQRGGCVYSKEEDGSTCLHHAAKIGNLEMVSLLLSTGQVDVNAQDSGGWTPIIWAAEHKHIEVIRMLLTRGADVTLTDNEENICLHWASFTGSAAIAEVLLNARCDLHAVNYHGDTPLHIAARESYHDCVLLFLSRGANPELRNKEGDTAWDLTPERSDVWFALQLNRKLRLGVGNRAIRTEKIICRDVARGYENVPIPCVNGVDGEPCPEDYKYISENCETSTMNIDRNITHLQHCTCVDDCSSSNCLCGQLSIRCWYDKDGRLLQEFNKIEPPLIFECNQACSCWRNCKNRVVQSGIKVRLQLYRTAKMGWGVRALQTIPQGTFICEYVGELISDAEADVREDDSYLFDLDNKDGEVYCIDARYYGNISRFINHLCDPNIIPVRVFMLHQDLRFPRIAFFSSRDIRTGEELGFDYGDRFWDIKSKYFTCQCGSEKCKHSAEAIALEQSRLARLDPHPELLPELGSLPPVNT

SMILES | Potency | activity, negative = inhibition
COc1cc(C(=O)Oc2cccc(C(=S)N3CCOCC3)c2)cc(OC)c1OC | active: 22.4 µM | 
Cc1ccc2cc(CN(CCN3CCCC3)C(=O)Nc3ccccc3)c(=O)[nH]c2c1C | inconclusive: 44.7 µM [inhibitor, partial curve] | 
C=CCn1c(SCC(=O)c2c(N)n(C3CC3)c(=O)[nH]c2=O)nnc1-c1ccc(OC)cc1 | inconclusive: 56.2 µM [inhibitor, single point] | 
COc1ccc(CCN(C(=O)c2ccccc2)C2=CC3CCC(C2)N3C)cc1OC (stereo not drawn) | inconclusive: 79.4 µM [inhibitor, partial curve, poor fit] | 
Cc1cc(C)n(C(=O)c2ccc([N+](=O)[O-])c(Cl)c2)n1 | inconclusive: 25.1 µM [inhibitor, single point] | 
C#CC(C)OC(=O)Nc1cnccc1C(F)(F)F (stereo not drawn) | inactive | 
COc1ccccc1Oc1nc2c(c(=O)n(C)c(=O)n2C)n1Cc1cccc(Br)c1 | inconclusive: 20 µM [inhibitor, single point] | 
O=C1OCCC1Sc1nnc(-c2ccc(O)cc2)o1 (stereo not drawn) |  | inactive: 37.2% [at 0.501 µM]
COCCNC(=O)c1ccc2c(c1)N(Cc1cccc(Cl)c1)C(=O)c1ccccc1S2(=O)=O | inactive | 
CCOc1ccc(NC(=O)CN2CCN(CC(=O)Nc3ccc(Cl)c(C(F)(F)F)c3)CC2)cc1 | inconclusive: 89.1 µM [inhibitor, single point] | 
COc1ccc(OCCC(=O)NCCN2CCOCC2)cc1 | active: 56.2 µM | 
CCn1c(CNC(=O)COc2ccc(C(C)C)cc2)nnc1SCC(=O)Nc1ccccc1F | inconclusive: 7.08 µM [inhibitor, single point] | 
CCOC(=O)C1CCCN(C(=O)c2ccc3c(=O)n(CCOC)c(=S)[nH]c3c2)C1 (stereo not drawn) | inconclusive: 35.5 µM [inhibitor, single point] | 
O=C(NCc1cc([N+](=O)[O-])ccc1O)c1cccnc1Sc1ccccc1Cl | inconclusive: 39.8 µM [inhibitor, single point] | 
Cc1ccc(S(=O)(=O)N(C)C)cc1NC(=O)c1cc(=O)c2ccccc2o1 | inconclusive: 89.1 µM [inhibitor, partial curve, poor fit] | 
COc1ccc(-c2cc(NCc3ccc(F)cc3)n3cnnc3n2)cc1 | inconclusive: 31.6 µM [inhibitor, partial curve, poor fit] | 
CCCN1CCC(=O)N([C@H](CSc2ccc(C)cc2)CC(C)C)CC1 | inactive | 
COc1ccc(C(=O)N2CCCC(Nc3ccc(C(C)C)cc3)C2)c(OC)n1 (stereo not drawn) | inconclusive: 70.8 µM [inhibitor, single point] | 
Cc1occc1C(=O)n1cnc2ccccc21 | inconclusive: 3.98 µM [inhibitor, single point] | 
CCOc1ccc(NC(=O)c2cn(-c3ccc(OCC)cc3)c(=O)c3cc(OC)c(OC)cc23)cc1 | inactive | 
Cc1ccc(NC(=O)CCc2nnc3n(CC(C)C)c(=O)c4ccccc4n23)cc1C | inactive | 
O=C(NC(=S)Nc1ccc(CN2CCOCC2)cc1)c1ccc([N+](=O)[O-])cc1Cl | active: 50.1 µM | 
CCC1=[N+](CC(=O)c2ccc(C)cc2)CCn2c(C)ccc21 | inconclusive: 31.6 µM [inhibitor, single point] | 

SMILES | Potency | activity, negative = inhibition
CCCCc1nnc(NC(=O)c2ccc3[nH]c(=O)c(=O)[nH]c3c2)s1 | inactive | 
COc1ccc(CC(=O)c2c(O)cc(O)cc2O)cc1OC | inconclusive: 39.8 µM [inhibitor, single point] | 
COCCn1c(C)cc(/C=C2/SC(=O)N(C(C)C(=O)OC)C2=O)c1C (stereo not drawn) | inconclusive: 70.8 µM [inhibitor, partial curve, poor fit] | 
O=C(Nc1ccccc1)Nc1ccccn1 | inactive | 
O=[N+]([O-])c1ccc(N2CCN(Cc3ccncc3)CC2)cc1 | active: 31.6 µM | 
CC(=O)/C(N=Nc1cc2c(c([N+](=O)[O-])c1C)C(C)(C)CC2(C)C)=C(\C)O | inconclusive: 10 µM [inhibitor, full curve] | 
Cc1nc2ccccc2c(C)c1C(=O)c1ccc(F)cc1 | active: 50.1 µM | 
CC1=C(C(=O)Nc2ccccn2)C(c2ccc(N(C)C)cc2)n2ncnc2N1 (stereo not drawn) | inconclusive: 70.8 µM [inhibitor, partial curve, poor fit] | 
COc1ccc(C2C3=C(Nc4ncnn42)c2ccccc2CCC3)cc1 (stereo not drawn) | inconclusive: 89.1 µM [inhibitor, single point] | 
COc1ccc(C2/C(=C(\O)c3ccc4c(c3)OCCO4)C(=O)C(=O)N2CCCn2ccnc2)cc1 (stereo not drawn) | inconclusive: 50.1 µM [inhibitor, partial curve, poor fit] | 
CCCCNC(=O)C1(O)c2cc(Br)ccc2NC(=O)N1c1cccc(OC)c1 (stereo not drawn) | inactive | 
O=C(COC(=O)CCS(=O)(=O)c1ccc(Cl)cc1)NC1CCCCC1 | inconclusive: 89.1 µM [inhibitor, single point] | 
N#Cc1ccc(C2=NC(C(F)(F)F)(C(F)(F)F)c3c(n(Cc4ccco4)c(=O)[nH]c3=O)N2)cc1 | inconclusive: 100 µM [inhibitor, single point] | 
COc1ccc2c(C(=O)CN3CCC(C)CC3)c[nH]c2c1 | inconclusive: 89.1 µM [inhibitor, single point] | 
O=C1CC(SCc2nc3ccccc3[nH]2)C(=O)N1c1cccc(F)c1 (stereo not drawn) | inconclusive: 3.16 µM [inhibitor, full curve, poor fit] | 
COc1ccc2nc(Cl)c(C3CC(c4ccco4)=NN3C(=O)CCC(=O)O)cc2c1 (stereo not drawn) | inconclusive: 22.4 µM [inhibitor, partial curve, poor fit] | 
CC(C)(C)C1=Nn2c(nnc2-c2n[nH]c3c2CCC3)SC1 | inconclusive: 1.26 µM [inhibitor, partial curve, poor fit] | 
CC(C)(C)c1ccc(OCCC(=O)Nc2ccc(N3CCOCC3)cc2N2CCOCC2)cc1 | active: 5.62 µM | 
CCOC(=O)c1[nH]c(C)c(CCC(=O)OC)c1C | inconclusive: 31.6 µM [inhibitor, single point] | 
Cc1ccc(S(=O)(=O)N2CCCC2)cc1C(=O)NCC(C)(C)N1CCOCC1 | inconclusive: 0.708 µM [inhibitor, partial curve, poor fit] | 
Cc1ccccc1N1CC(c2nc3ccccc3[nH]2)CC1=O (stereo not drawn) | inconclusive: 3.55 µM [inhibitor, single point] | 
CCN(Cc1cc(=O)n2ccsc2n1)Cc1nc2ccccc2c(=O)[nH]1 | inconclusive: 50.1 µM [inhibitor, partial curve, poor fit] | 
CC(C)S(=O)(=O)C1=NSC2=NC(=O)/C(=C\c3ccc(-c4cccc(C(=O)O)c4)o3)C(=N)N21 | active: 39.8 µM | 

SMILES | Potency | activity, negative = inhibition
Cn1cccc2[nH]c(=O)nc1-2 | inconclusive: 44.7 µM [inhibitor, partial curve, poor fit] | 
CC(=O)Nc1ccccc1OCC(=O)c1ccc2c(c1)OCO2 | inconclusive: 1.78 µM [inhibitor, full curve, poor fit] | 
CCOC(=O)c1[nH]c2ccc(Br)cc2c1NC(=O)CCN1CCC(C(=O)OCC)CC1 | active: 50.1 µM | 
Cc1ccc(NC2=CC(c3ccccc3F)N(c3ccc(C)cc3)C2=O)cc1 (stereo not drawn) | inconclusive: 31.6 µM [inhibitor, single point] | 
COc1ccc(N2CCN(C(=O)c3ccc(CNc4c(N5CCOCC5)c(=O)c4=O)cc3)CC2)cc1 | inconclusive: 79.4 µM [inhibitor, single point] | 
CCOC(=O)c1c(NC(C)=O)sc2c(OCCN(CC)CC)c(Br)ccc12 | inconclusive: 15.8 µM [inhibitor, partial curve] | 
O=C(Cc1csc(-c2cccc(Cl)c2)n1)Nc1cccc(S(=O)(=O)NC2=NCCC2)c1 | active: 14.1 µM | 
CCCCCOC(=O)Cc1c(O)c2ccccc2n(C)c1=O | inconclusive: 39.8 µM [inhibitor, single point] | 
C=CCSC1=C(C#N)C(c2ccccc2Cl)CC(=O)N1 (stereo not drawn) | active: 20 µM | 
CCCCN(C)c1nnc(NC(=O)Nc2cccc(C(C)=O)c2)s1 | inactive | 
O=C1CC(c2ccccc2)NN1 (stereo not drawn) |  | inconclusive: -85.5% [inhibitor] [at 2.33 µM]
O=C(Cn1c(=O)oc2cc(S(=O)(=O)NCc3ccccc3)ccc21)NCc1ccco1 | inconclusive: 44.7 µM [inhibitor, partial curve, poor fit] | 
Cc1ccc(NC(=O)CCC(=O)NCCO)cc1 | inactive | 
Cn1c(=O)c2c(nc(NCC3CCCO3)n2Cc2cccc(Br)c2)n(C)c1=O (stereo not drawn) |  | inactive: 21.9% [at 12.7 µM]
CCCCC/C=C\C/C=C\C/C=C\C/C=C\CCCC(=O)C(F)(F)F | inactive | 
Cc1cc(NC(=O)c2cc(-c3ccco3)on2)n(-c2ccccc2)n1 | inconclusive: 25.1 µM [inhibitor, single point] | 
COC(=O)COc1ccc(NC(=O)C2CCCO2)cc1 (stereo not drawn) | inconclusive: 1 µM [inhibitor, full curve, poor fit] | 
O=C(Nc1cc(S(=O)(=O)N2CCCCC2)ccc1O)c1ccccc1NS(=O)(=O)c1ccc(F)cc1 | inconclusive: 25.1 µM [inhibitor, single point] | 
N#CC/C(N)=N/Nc1nc2ccccc2nc1Cc1ccccc1 | active: 50.1 µM | 
Cc1cccc(NS(=O)(=O)c2ccc3c(c2)oc(=O)n3C)c1C | inactive | 
O=[N+]([O-])c1ccc(S(=O)(=O)NCC(c2cccnc2)N2CCc3ccccc3C2)cc1 (stereo not drawn) | active: 50.1 µM | 
COC(=O)c1ccc(COc2ccccc2/C=C/C(=O)c2ccc(OCC(=O)O)cc2)cc1 | active: 50.1 µM | 
